In all, about 110,000 compounds were measured (“z-score”: median about -0.1, highest 2% from about 2 on). The list shows a part of the results. The source made the active and inactive calls.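 The calls were made as follows: active = z-score in the third read window above 3 or below -3; inactive = the rest.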

The target of this assay is Metabotropic glutamate receptor 8 (Rattus norvegicus) (UniProt P70579). The assay is described as follows: rat mGluR8 modulators via GIRK flux, primary screen, cell-based, thallium flux, HTS (AID 488969). As to conditions: HEK293 rat mGluR8, GIRK (G protein-gated inwardly rectifying potassium channel) thallium flux, FluoZin2; at 10 µM; stronger effect = higher value; submaximal glutamate (EC20) added with thallium.
Chain of UniProt P70579 (P70579 whole entry, looked up): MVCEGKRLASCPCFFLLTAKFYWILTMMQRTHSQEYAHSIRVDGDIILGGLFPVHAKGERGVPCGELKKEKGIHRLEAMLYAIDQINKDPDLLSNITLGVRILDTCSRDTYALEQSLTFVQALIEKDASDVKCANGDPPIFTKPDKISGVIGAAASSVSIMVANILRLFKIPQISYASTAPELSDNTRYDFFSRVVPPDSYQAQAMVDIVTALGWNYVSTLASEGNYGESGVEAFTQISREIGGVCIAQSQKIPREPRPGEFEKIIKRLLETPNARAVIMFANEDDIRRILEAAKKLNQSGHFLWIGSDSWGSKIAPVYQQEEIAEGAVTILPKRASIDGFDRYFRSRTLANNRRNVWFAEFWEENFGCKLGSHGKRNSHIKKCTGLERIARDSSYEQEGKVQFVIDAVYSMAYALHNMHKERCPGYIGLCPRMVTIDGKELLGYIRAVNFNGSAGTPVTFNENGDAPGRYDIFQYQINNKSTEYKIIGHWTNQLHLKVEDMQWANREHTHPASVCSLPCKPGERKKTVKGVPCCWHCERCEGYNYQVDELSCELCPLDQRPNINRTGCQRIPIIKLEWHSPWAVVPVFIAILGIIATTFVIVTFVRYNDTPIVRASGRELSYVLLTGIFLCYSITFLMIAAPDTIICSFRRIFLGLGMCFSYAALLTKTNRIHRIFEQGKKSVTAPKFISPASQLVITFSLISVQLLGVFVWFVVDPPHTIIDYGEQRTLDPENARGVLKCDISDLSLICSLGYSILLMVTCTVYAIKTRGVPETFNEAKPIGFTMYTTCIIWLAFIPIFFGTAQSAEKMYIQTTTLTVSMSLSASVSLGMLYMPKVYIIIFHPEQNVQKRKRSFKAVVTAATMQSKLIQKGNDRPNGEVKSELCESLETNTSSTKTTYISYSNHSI
In turn, `COc1ccc(C(=O)NCc2ccc3c(c2)OCO3)cc1S(=O)(=O)N(C)Cc1ccccc1` gave a z-score of -0.143. On to `CC(=O)NCCn1c(SCC(=O)NCCC(C)C)nc2ccccc2c1=O`, for which the z-score was -0.154. The result for `O=C(CN1C(=O)c2ccccc2S1(=O)=O)Nc1ccc(S(=O)(=O)N2CCCCC2)cc1` reads -1.11.

Regarding `CCCCc1nc2ccccc2c(NC(=O)CNC(C)(C)C)c1CCC`, the z-score is -0.0211. `CCn1c(CC(=O)Nc2cccc(OC)c2)nnc1SCC(=O)N1CCN(c2ccccc2)CC1` had a z-score of -1.27. The result for `COc1ccc(N2CC(O)=C(c3nc(C)cs3)C2=N)cc1` reads 0.128; that for `CCN(CC)CCCN(Cc1cc2cc(OC)c(OC)cc2[nH]c1=O)C(=O)Nc1ccccc1`, 0.204. `Cc1oncc1C(=O)NC(C)C` showed a z-score of -0.192.

In turn, `O=C(NCc1ccccc1F)C1CCCN1C(=O)NC1CCCCC1` (stereo not given) displayed a z-score of -0.968. The result for `CCOc1ccc(C(c2c(C)[nH][nH]c2=O)c2c(C)[nH][nH]c2=O)cc1OCC` reads 0.0251; that for `Cc1[nH]c2ccccc2c1C(=O)/C=C/c1ccccc1Cl`, -0.0344; that for `Cc1ccc(CN(C(=O)c2cc(=O)c3cc(Cl)c(C)cc3o2)C2CCS(=O)(=O)C2)cc1` (stereo not given), 0.162. The result for `COc1ccc2[nH]c(C)c(C(=O)CN3CCOCC3)c2c1` reads 0.0884.

For the molecule `NC(=O)c1ccccc1NC(=O)Nc1cccc(Cl)c1`, the z-score is -0.363. The result for `O=C(O)c1cccc(-c2nnn(Cc3ccccc3Cl)n2)c1` reads 0.145; that for `COc1ccc(C2CC(c3ccc(C)o3)=NN2C(C)=O)cc1` (stereo not given), -0.0426; that for `c1ccc(-c2oc3ncnc(NCCCn4ccnc4)c3c2-c2ccccc2)cc1`, 0.609. For `Cc1cccc(C)c1OCC(=O)Nc1oc(-c2ccccc2)c(-c2ccccc2)c1C#N`, the z-score was -0.376. The result for `CC(C)OC(=O)c1cc2c(ccn2C)n1CC(=O)N(Cc1ccccc1)c1ccccc1` reads -0.243.

Turning to `COc1ccc2cc(C(=O)c3ccccc3)c(=O)oc2c1`, the z-score is -0.83. The result for `O=C(NC1CCCC1)C(c1ccsc1)N(Cc1ccco1)C(=O)Cc1cccs1` (stereo not given) reads -0.352; that for `O=C(CCS(=O)(=O)Cc1ccccc1)N1CCN(c2ccccc2)CC1`, 0.228. In the case of `Cc1ccc(OCCCC(=O)N2CCOCC2)cc1`, the z-score was -0.00866. On to `CCc1ccc(/C=C(\Cl)c2nc3cc(Cl)ccc3c(=O)[nH]2)cc1`, for which the z-score was found to be 0.511.

The molecule `OC(CN1CCN(Cc2ccc3c(c2)OCO3)CC1)c1c[nH]c2ccccc12` (stereo not given) came in with a z-score of 0.203. Take `COc1ccc(S(=O)(=O)N2Cc3ccccc3CC2C(=O)Nc2nccs2)cc1` (stereo not given): the z-score was -0.194. The result for `CCOCCCNC(=O)c1ccc2c(c1)OCO2` reads 0.309; that for `CCCOc1ccc(C(=O)N2CCCc3ccccc32)cc1`, -0.388.

With `O=C(N/N=C/c1cc(Cl)ccc1O)C(=O)Nc1ccccc1OC(F)(F)C(F)F`, the z-score is -0.276. In turn, `O=C(COC(=O)c1cc[n+]([O-])cc1)Nc1ccc2c(c1)OCCO2` yielded a z-score of -0.0257. The result for `Cc1c(Cl)c(-c2n[nH]c(=S)n2Cc2ccco2)nn1C` reads -0.274; that for `CCc1ccc(C(=O)NC(C(=O)O)C(C)C)cc1` (stereo not given), 0.403; that for `CCn1c(SCC(=O)NCCc2ccccc2)nnc1-c1cccs1`, 0.562.

Regarding `CCOC(=O)N1CCN(c2nc(-c3ccco3)cc(C(F)(F)F)n2)CC1`, the z-score worked out at 0.625. The result for `O=C(C1CCN(Cc2ccc(Cl)cc2)CC1)N1CCN(C(c2ccccc2)c2ccccc2)CC1` reads 0.432; that for `CCOc1nnc(C)c2c(C)n(-c3cccc(Cl)c3)nc12`, -1.49. `CCOC(=O)Cc1nnc(NC(=O)CSc2nncn2C)s1` returned a z-score of 0.788. The result for `CC12CCC(C(=O)N3CCCc4ccccc43)(OC1=O)C2(C)C` (stereo not given) reads -0.143; that for `CCOC(=O)COc1ccc(S(=O)(=O)c2ccc(OCC(=O)OCC)cc2)cc1`, -0.387; that for `COC(=O)CC1SC(=O)NC1=Nc1ccc(OC)cc1` (stereo not given), -0.0377. The result for `CCOC(=O)C(CC)Sc1nc2c(cnn2-c2ccccc2)c(=O)[nH]1` (stereo not given) reads -0.956; that for `Cc1ccc(OC(=O)Cn2c(C(F)(F)F)nc3ccccc32)cc1`, -0.104. The molecule `Cc1nn(C)cc1/C=C/C(=O)c1ccccc1` had a z-score of -0.137.

In the case of `CCOc1ccc(CC(=O)Nc2ccc(S(=O)(=O)Nc3cc(C)on3)cc2)cc1OCC`, the z-score was -0.243. In turn, `CCOc1ccc(C2=C(C=C(C#N)C#N)C(c3ccccc3)c3ccccc3O2)cc1` (stereo not given) gave a z-score of -0.552.

In turn, `Cc1noc(/C=C/N(C)C)c1S(=O)(=O)N1CCCC(C(=O)N2CCCCC2)C1` (stereo not given) gave a z-score of -0.0325. For the molecule `COc1cc2c(cc1OC)C1=NC(=O)CN1C(SCc1ccc(C)cc1)=N2`, the z-score was -0.0474. The result for `COC(=O)CC1Oc2ccc(C)cc2NC1=O` (stereo not given) reads -0.352; that for `CCCCNC(=O)NNC(=O)COc1cccc(C)c1C`, -0.318; that for `Cc1nc2ncnn2c(Nc2ccc3c(c2)OCCO3)c1C`, -0.101. The result for `CC(NC(=O)C1CCCO1)c1ccccc1` (stereo not given) reads -0.283. The result for `O=C1C2CC=C(Cl)CC2C(=O)N1CCc1ccccc1` (stereo not given) reads -0.115; that for `COc1ccccc1C(c1nnnn1C(C)(C)C)N1CCN(C(=O)c2ccco2)CC1` (stereo not given), -0.115.

For `Cc1nnc(NC(=O)c2cccc(S(=O)(=O)N3CC(c4ccccc4)CC3=O)c2)s1` (stereo not given), the z-score is -0.712. The result for `CN(Cc1nc(-c2cccnc2)no1)S(=O)(=O)c1ccccc1` reads 0.141; that for `COc1ccc(NC(=O)CC2C(=O)N(c3ccc(OC)cc3)C(=O)N2C(C)C)cc1` (stereo not given), 0.0999. `O=C(c1cnc(-c2ccccc2)s1)c1ccc(Cl)cc1Cl`: the z-score is -0.278.

As for `O=C(Cc1ccccc1)Nc1ccc2oc(-c3cccnc3)nc2c1`, the z-score was found to be 0.0373. The result for `Cc1ccc2nc(NCc3ccco3)c(C=NCc3ccco3)c(=O)n2c1` reads 0.874; that for `Cc1nc(=O)c(-c2ccccc2)c(C)n1-c1ccccc1C(=O)O`, 0.579; that for `O=C(Nc1ccc(Cl)cc1)N(Cc1nnc2n1CCCCC2)c1ccccc1`, -0.211.

Consider `CCC(=O)N1c2ccc(S(=O)(=O)CCC(=O)NCc3ccc4c(c3)OCO4)cc2CC1C` (stereo not given), for which the z-score is -0.0251. With `CCCc1cc(-c2n[nH]c(=S)n2Cc2ccccc2)cs1`, the z-score is active: 4.6.

Turning to `O=C(NCCc1ccccn1)c1cccc(S(=O)(=O)N2CCCCCC2)c1`, the z-score is -0.13. For `CCOC(=O)N1CCN(c2ncnc3c2[nH]c2ccc(F)cc23)CC1`, the z-score amounted to 0.0532. The result for `O=C(CN1C(=O)NC2(CCCCCC2)C1=O)Nc1ccc(S(=O)(=O)N2CCOCC2)cc1` reads -0.0939; that for `Cc1[nH]nc(SCC(=O)NC(C)c2ccccc2)c1[N+](=O)[O-]` (stereo not given), -0.0398; that for `O=C(CCS(=O)(=O)Cc1ccccc1)NCC1CCCO1` (stereo not given), 0.391. The result for `CCOc1ccc2ccccc2c1CNCCN1CCOCC1` reads 0.105; that for `Cc1[nH]c2ccccc2c1C(=O)C(=O)NCCC1=CCCCC1`, 0.506. For `Clc1ccc2nc(C3CCN(Cc4nnnn4C4CCCCC4)CC3)[nH]c2c1`, the z-score was -0.461. The result for `COc1ccc(N2C(=O)CC2(C#N)c2ccc(OCc3ccccc3)cc2)cc1` (stereo not given) reads -0.272; that for `COc1cccc(C(=O)Nc2ccc(C)cc2)c1`, 0.174. In the case of `COc1cccc(CN(C)CC(=O)Nc2cc3oc4ccccc4c3cc2OC)c1`, the z-score was determined as 0.0498. On to `O=C(O)CCCN=C1NC2(CCCC2)Cc2ccccc21`, for which the z-score amounted to 0.256. The result for `Cc1cc(-c2ccc(Cl)cc2)oc(=O)c1NC(=O)c1ccccc1` reads -0.0434.

`COc1ccc(S(=O)(=O)n2ccc(C)n2)cc1C` showed a z-score of -0.988.

Regarding `CCCCCCCCS(=O)c1sc2nc3c(cc2c1N)CCCC3` (stereo not given), the z-score is -0.0105.

Regarding `Cc1ccc(CCNC(=O)CN2CCN(Cc3ccccc3F)C2=O)cc1`, the z-score was determined as 0.229. The molecule `O=C(/C=N/O)NCC1CCNCC1` had a z-score of -0.961. The result for `COc1ccc(OC)c(NC(=O)COc2ccc(S(=O)(=O)NC(C)C)cc2)c1` reads -0.207; that for `O=C(NC(NC(=S)Nc1ccccc1C(=O)O)C(Cl)(Cl)Cl)c1ccco1` (stereo not given), -0.106; that for `Cc1onc(-c2ccccc2Cl)c1C(=O)Nc1ccc(OCC(=O)N2CCOCC2)cc1`, -0.0377. In turn, `CCc1nnc(NC(=O)c2c(C)nn(-c3ccccc3)c2Cl)s1` registered a z-score of -0.322. The result for `O=C(NCc1ccco1)Nc1ccc2nsnc2c1` reads -0.135. For the molecule `O=C(NC(=S)N1CCOCC1)C12CC3CCC(CC(C3)C1)C2`, the z-score worked out at 0.454. For `Cc1ccc(N(CC(=O)NCc2ccc(F)cc2)S(=O)(=O)c2cccs2)cc1`, the z-score was -0.42. The result for `N#CC(C(=O)NC1CCCCC1)c1nc2ccccc2nc1N1CCN(c2ccccc2F)CC1` (stereo not given) reads 0.0655; that for `O=C(NCCCN1CCN(CCCNC(=O)c2ccc3c(c2)OCO3)CC1)c1ccc2c(c1)OCO2`, -0.448; that for `O=C(CSCc1ccc(Cl)cc1)Nc1nccs1`, -0.765. The result for `COc1ccc(CC(=O)O/N=C(\N)Cc2cccc3ccccc23)cc1OC` reads -0.317; that for `CC(C)NC(=S)Nc1ccc(Oc2ccccc2)cc1`, 1.68. The result for `CCOC(=O)CSc1nc2ccc(NC(=O)CSc3nnnn3Cc3ccccc3)cc2s1` reads 1.23. Regarding `CCOC(=O)c1cc2c(=O)n3cccc(C)c3nc2n(Cc2ccco2)c1=NC(=O)c1ccccc1`, the z-score is -0.217. On to `CCOC(=O)N1CCN(S(=O)(=O)c2ccc3c(c2)oc(=O)n3C)CC1`, for which the z-score was determined as 0.0985. The result for `O=C(CCN1C(=O)C2CC=C(Cl)CC2C1=O)NCc1ccccc1` (stereo not given) reads 0.029; that for `Cc1ccccc1NC(=O)c1cnn(-c2ccccc2)c1NC(=O)c1ccco1`, -0.127; that for `CCSc1nnc(NC(=O)c2ccc3c(c2)OCO3)s1`, -0.178. The molecule `Cc1c(C(=O)NCc2ccc3c(c2)OCO3)oc2ccccc12` had a z-score of -1.32. `COC(=O)c1ccccc1NC1=C/C(=N\S(=O)(=O)c2cccs2)c2ccccc2C1=O` had a z-score of 0.139. On to `CC(C)C[C@H](NC(=O)Nc1cccc(Br)c1)C(=O)O`, for which the z-score was -0.0217.

Consider `Clc1ccccc1-c1nnc(-c2ccccc2Cl)o1`, for which the z-score was -0.593. The result for `Cc1ccc(C(=O)N2CC(=O)Nc3ccc(F)cc3C2c2ccc(F)cc2)cc1[N+](=O)[O-]` (stereo not given) reads -0.191; that for `CCOC(=O)N1CCC(NCCNC(=O)c2ccc(Cl)cc2)CC1`, -0.483. Consider `COc1ccccc1/C=C1\SC(=O)N(CCC(=O)NNC(=O)c2ccccc2Cl)C1=O`, for which the z-score is -0.0914. The result for `COc1ccc(/C=N/NC(=O)CN2CCSCC2)c(OC)c1` reads 0.144. On to `CN(c1ccc(C(=O)NCCSCc2ccco2)cc1)S(C)(=O)=O`, for which the z-score is -0.396. The result for `COc1ccc(NC(=O)COC(=O)/C=C/c2ccccc2[N+](=O)[O-])cc1OC` reads 0.461. As for `O=c1cc(CO)oc(CN2CCN(c3cccc(C(F)(F)F)c3)CC2)c1O`, the z-score was 0.0291. Regarding `CN(c1cccc(NC(=O)COc2ccc(Cl)cc2Cl)c1)S(C)(=O)=O`, the z-score stood at 0.195.

These data come from PubChem BioAssay AID488969 (Vanderbilt High Throughput Screening Facility, 2010).
